According to publication PMC10868842, “Structural basis of the recognition of adeno-associated virus by the neurological system-related receptor carbonic anhydrase IV” (PLOS Pathogens, 2024):
No constants are given. Whether binding was seen depends on the method and setting. Some binding calls cover weakened binding; strength is not graded here.

B1: carbonic anhydrase IV (Car4), Mus musculus, residues 22-277 (receptor, UniProt Q64444 22-277)
chain: WCYEIQTKDPRSSCLGPEKWPGACKENQQSPINIVTARTKVNPRLTPFILVGYDQKQQWPIKNNQHTVEMTLGGGACIIGGDLPARYEAVQLHLHWSNGNDNGSEHSIDGRHFAMEMHIVHKKLTSSKEDSKDKFAVLAFMIEVGDKVNKGFQPLVEALPSISKPHSTSTVRESSLQDMLPPSTKMYTYFRYNGSLTTPNCDETVIWTVYKQPIKIHKNQFLEFSKNLYYDEDQKLNMKDNVRPLQPLGKRQVFKS
B2: Mus musculus carbonic anhydrase IV (Car4), amino acids W22 to S277 (receptor)
chain: B1 chain
notes: carbonic anhydrase IV (Car4), Mus musculus, residues 22-277 (W22 to S277); the functional rows use this molecule for Car4; also called wt Car4; truncated Car4 (22-277); not shown: GST, N-terminal, cleaved

Tests used:
[1] = target: AAV9P31 capsid (adeno-associated virus 9 variant with the 7-mer WPTSYDA inserted in VP3 VR-VIII) (adeno-associated virus 9) (UniProt Q6JC40); assay: SPR; BIAcore 8K; AAV9P31 particles immobilised on a CM5 chip by amide coupling (sodium acetate pH 4.0); WT or mutated Car4 proteins flowed over at 30 ul/min, 25 °C, PBST; regeneration with 10 mM glycine pH 2.0; both purified
[2] = target: AAV9 capsid (wild-type adeno-associated virus 9) (adeno-associated virus 9) (UniProt Q6JC40); assay: SPR; BIAcore 8K; virus particles (ligand) immobilised on a CM5 chip by amide coupling from sodium acetate pH 4.0; Car4 or hCar4 proteins flowed over as analytes at 30 ul/min, 25 C, PBST; regeneration with 10 mM glycine-HCl pH 2.0; both purified
[3] = target: wild-type AAV9 capsid (adeno-associated virus 9) (UniProt Q6JC40); assay: SPR; BIAcore 8K; wild-type Car4 tested on AAV9; who was immobilised is not told for AAV9; both purified
[4] = target: AAV9P31 capsid (adeno-associated virus 9 variant with the 7-mer WPTSYDA inserted in VP3 VR-VIII) (adeno-associated virus 9) (UniProt Q6JC40); assay: cryo-EM structure; AAV9P31 on the grid, Car4 (W22-S277) added and incubated for 5 minutes; icosahedral reconstruction and block-based reconstruction of the 3-fold axis blocks; both purified

Molecule | binding [1] | further results
Car4 (22-277) I100A (from UniProt Q64444 22-277) (receptor) | binds | –
Car4 (22-277) K83A (from UniProt Q64444 22-277) (receptor) | binds | –
Car4 (22-277) L217A (from UniProt Q64444 22-277) (receptor) | binds weakly | –
Car4 (22-277) Q112A (from UniProt Q64444 22-277) (receptor) | binds weakly | –
Car4 (22-277) R107A (from UniProt Q64444 22-277) (receptor) | binds | –
B1 | – | binding [2]: no binding (tested: 2500 nM)
B2 | – | binding [3]: no binding; binding [4]: binds
